# Source: the supplement of paper PMC11417369
# Some of the results follow.
# System: PfHDP1 homeodomain (GST-tagged)
# Experiment: gcPBM binding intensity (ln(normalized median fluorescence intensity)); higher = stronger DNA binding
# How it was run: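 Binding intensity values are the highest Masliner-normalised natural-log median intensity among replicate spots of either probe orientation. The binding step lasted 1 h in 1× PBS with 1% milk, 0.2 mg/ml BSA, 0.5% salmon testes DNA and 0.03% Triton X-100, using GST-tagged P. falciparum DNA-binding domains expressed in E. coli on an Agilent 4 × 180k array of primer-extended double-stranded 36-bp intergenic genomic probes plus negative controls. Alexa488 anti-GST antibody and a 488 nm scan detected bound protein.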
row,Sequence,gcPBM binding intensity (ln)
1,TATGTAACACATACTTGTACATATATAATTTTTTTA [XGTACX_site6251],5.98
2,AAGAAAAAAGGGGACAAGGCATATCTATATATACAT [TGCATGCA_negctrl_site172],6.15
3,ATACATATATATATATGTACATATGCACATATATAC [XGTACX_site7209],9.31
4,TATATTTGTAAGAAGAGTACTAAAAAAAGAATAAAG [XGTACX_site8704],6.83
5,TTCCCTAATATTTGTTGTACTTGTTATATTTTTTTT [XGTACX_site5994],6.99
6,ATATATATATATATATGTACGTACTCAGTTATGCCT [XGTACX_site453],9.39
7,ATTTATTAACCATATACACACATATATTTGTATTTA [CACACA_site6744],6.84
8,ATAGTATCTGGTAGCTGTACGAGTCGTAGAGTGCAG [XGTACX_site2020],7.04
9,AATATATTATAATATACACACATATATGCTCTTTAA [CACACA_site4131],7.1
10,ATATATTATATATATTTTAAGTAATTTGCAAAAAAT [GTGCAC_negctrl_site361],9.59
11,ATTTAAAAGAAATAATGTACGAATCATATTTGATAT [XGTACX_site1785],6.22
12,ATGTATATAATATTATGTACATATATGAAATATTTT [XGTACX_site8168],6.66
13,TTTATTTATTATTGTTGTACACTTTTTATAAAAAAA [XGTACX_site5114],6.82
14,ATAAGAAAAGGACACACACACAAAAAAAAAAAAAAA [CACACA_site7351],6.25
15,TGTTCTTATTTTATAAGCATATAATTAATCATAATG [CACACA_negctrl_site1493],6.07
16,TAGTTTTTTATAAAATTATTTATATAAAGGTAAAAA [CACACA_negctrl_site490],6.69
17,TTCTTTTTTATTTTTCAACACACATAATAAATTTCT [CACACA_site8253],6.98
18,CTTTCCATATATGATAGTACACGATAAAAAAAAAAA [XGTACX_site5772],6.74
19,TTTAAAAAAAATTCATATTATATATATATATATTAT [CACACA_negctrl_site1733],6.38

row,Sequence,gcPBM binding intensity (ln)
1,AAAGAAATAAGGTGCACACATATACATATATATATA [CACACA_site429],9.38
2,AACGATTTACATCACTGTACTAATGATATACCTCAT [XGTACX_site7463],6.36
3,TATATATTTTCTTTTGCACACTGTTTTCCTTTTTTT [CACACA_site2739],10.2
4,TATATATATATATATTGTACTATATAGTATCTTTTT [XGTACX_site1646],9.16
5,TACCCTTGCATGTAGGTGCAATTTTTTTTTTTTTTT,9.32
6,TTCGTAATTTATATCACACACATATATATATAATAA [CACACA_site3115],7.07
7,CAACTTTATACATATAGTACAAGTTATATTTTATTA [XGTACX_site6651],6.13
8,AAATTTGAAATGCATGAACACACACCGCTATAAATG [CACACA_site8230],6.83
9,TAAATATAGAAACACACACACATTAATACATATATT [CACACA_site3489],6.68
10,TAATTTTTTATATATTGTACAAATAATATATGATGT [XGTACX_site268],6.55
11,AAGGTATACACTGCTTTATCAAGTTTAACTCTTTTT [XGTACX_negctrl_site118],6.26
12,ACATCATAAAATTTATGTACACATTTTTAATTATAC [XGTACX_site7759],6.51
13,ATCATTTTTATGTACACACACATATACGTTGAATAT [CACACA_site1865],7.04
14,AAGATATGAGGGAATACACACATATTTATATTTATA [CACACA_site6846],6.29
15,TATAAAATTTACGTGTGTACATATTTAATAATTTTT [XGTACX_site5001],6.58
16,ATATATATATAATTATATAAAATATATCATATGTTA [XGTACX_negctrl_site47],8.3
17,AAGAAATAAATACATACACACATATATAAATAAATA [CACACA_site7559],6.66
18,AAGAAATAATTATTATGTACTTAAAAAAATTAAAAT [XGTACX_site7423],6.28
19,TTTATGTATTTAATATGTACATATAGTTGTTAATAA [XGTACX_site1938],6.52

row,Sequence,gcPBM binding intensity (ln)
1,GCTATATATTAATGTTGTACTTTATGTTCATATTGT [XGTACX_site3619],6.58
2,AAAATGTACGCATATACACACACATAAATAGATACG [CACACA_site9124],6.82
3,AATAAAAATAAAAGCACACATAAATATATATATATT [CACACA_site1441],6.55
4,TCATGGCCATTTTCAGTGCATATGTGTATTTAATAT [GTGCAC_site9529],9.34
5,GCAAGTCCATGAACGGTGCAGGAATTAACAAAAATA,7.43
6,GTTTCTACTTATATAACAGGACACGTGTGAATAATT [TGCATGCA_negctrl_site430],7.17
7,AAAAAAAAAAAACATTGTACGCACATTTTATATGTC [XGTACX_site6974],6.69
8,TTGAAGGTGGCAATGTGTACATAGAATAACCAGTGC [XGTACX_site4738],6.71
9,ACAATTGCATCTATCACACATACATACATACATACA [CACACA_site5063],7.74
10,AAAAAAATACATACGTGTACCCACATATATGTATCT [XGTACX_site5319],6.01
11,TATAAATATCTGTATGCACACATTTTTTTTGGAAAA [CACACA_site4734],9.28
12,TCAACAAAATTGAAGGAACACACATACATATATATA [CACACA_site7940],6.67
13,ATTTTTTCTCATAAAAACGTGAACGTTTATTTTACA [CACACA_negctrl_site1041],6.69
14,ATTATAAAAGAATTTTTTTTTATTTCATTAAAATAT [CACACA_negctrl_site1137],5.62
15,AGCACATAAATAATTAAACACACATTGTTCTAGACA [CACACA_site8746],6.3
16,TTACTATAAAATGTCACACATTCTGTTTCCTTACTT [CACACA_site5714],6.36
17,TCATGGGTGTATTTCACACACGGATAATCATTTATA [CACACA_site4663],6.41
18,TATAATGATGATGATAGTACGTATTAGTATAAAAAA [XGTACX_site9],6.82
